In the supplement of paper PMC12230231:
± gives the standard deviation of the averaged measurements. Restriction of a single-cycle SIVsab GFP reporter by TRIM5α v1-loop variants in CRFK cells. Human variants: read share among cells still uninfected after two challenges over input, higher = gained restriction. Rhesus variants: share among infected cells over input, higher = lost restriction. Reporter dose not given per row. No active / inactive call per row; the paper calls a change when both replicates lie above its controls (mean + 2 SD of stop or wild-type variants, or the top frameshift score). Residues outside the varied loop are taken from Swiss-Prot. The paper reads the human single-substitution scores as noise; they and the rhesus combinations repeat poorly (rank correlation 0.3 to 0.4), indel scores repeat only for the top variants, rhesus substitutions well (0.9).

tested on: SIVsab (simian immunodeficiency virus of sabaeus monkeys), single-cycle GFP reporter, in CRFK cells; test: enrichment among infected cells over input (fold); higher = weaker restriction; conditions: library: human / rhesus combinations
Method: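 Pools of CRFK cells expressing variants of the TRIM5α v1 loop were challenged with the single-cycle reporter, sorted by GFP and sequenced; mean of two replicates.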

Which enrichment does the source give for “MASGILLNVKEEVTCPICLELLTEPLSLHCGHSFCQACITANHKKSMLYKEGERSCPVCRISYQPENIQPNRHVANIVEKLREVKLSPEEGQKVDHCARHGEKLLLFCQEDSKVICWLCERSQEHRGHHTFLMEEVAQEYHVKLQTALEMLRQKQQEAEKLEADIREEKASWKIQIDYDKTNVSADFEQLREILDWEESNELQNLEKEEEDILKSLTKSETEMVQQTQYMRELISELEHRLQGSMMDLLQGVDGIIKRIENMTLKKPKTFHKNQRRVFRAPDLKGMLDMFRELTDARRYWVDVTLAPNNISHAVIAEDKRQVSSRNPQIMYQARGTLFPTFTNFNYCTGVLGSQSITSGKHYWEVDVSKKSAWILGVCAGFQSDAMYNIEQNENYQPKYGYWVIGLQEGVKYSVFQDGSSHTPFAPFIVPLSVIICPDRVGVFVDYEACTVSFFNITNHGFLIYKFSQCSFSKPVFPYLNPRKCTVPMTLCSPSS [rhesus TRIM5α, 332-344 = QARGTLFPTFT]” here?
Its enrichment is 0.0904 ± 0.074.

Which enrichment does the source give for “MASGILLNVKEEVTCPICLELLTEPLSLHCGHSFCQACITANHKKSMLYKEGERSCPVCRISYQPENIQPNRHVANIVEKLREVKLSPEEGQKVDHCARHGEKLLLFCQEDSKVICWLCERSQEHRGHHTFLMEEVAQEYHVKLQTALEMLRQKQQEAEKLEADIREEKASWKIQIDYDKTNVSADFEQLREILDWEESNELQNLEKEEEDILKSLTKSETEMVQQTQYMRELISELEHRLQGSMMDLLQGVDGIIKRIENMTLKKPKTFHKNQRRVFRAPDLKGMLDMFRELTDARRYWVDVTLAPNNISHAVIAEDKRQVSSRNPQIMYGAPGTLFTFQTLTNFNYCTGVLGSQSITSGKHYWEVDVSKKSAWILGVCAGFQSDAMYNIEQNENYQPKYGYWVIGLQEGVKYSVFQDGSSHTPFAPFIVPLSVIICPDRVGVFVDYEACTVSFFNITNHGFLIYKFSQCSFSKPVFPYLNPRKCTVPMTLCSPSS [rhesus TRIM5α, 332-344 = GAPGTLFTFQTLT]” here?
The enrichment was 1.36 ± 0.62.

How did the enrichment turn out when “MASGILLNVKEEVTCPICLELLTEPLSLHCGHSFCQACITANHKKSMLYKEGERSCPVCRISYQPENIQPNRHVANIVEKLREVKLSPEEGQKVDHCARHGEKLLLFCQEDSKVICWLCERSQEHRGHHTFLMEEVAQEYHVKLQTALEMLRQKQQEAEKLEADIREEKASWKIQIDYDKTNVSADFEQLREILDWEESNELQNLEKEEEDILKSLTKSETEMVQQTQYMRELISELEHRLQGSMMDLLQGVDGIIKRIENMTLKKPKTFHKNQRRVFRAPDLKGMLDMFRELTDARRYWVDVTLAPNNISHAVIAEDKRQVSSRNPQIMYQAPGTRFTFQTLTNFNYCTGVLGSQSITSGKHYWEVDVSKKSAWILGVCAGFQSDAMYNIEQNENYQPKYGYWVIGLQEGVKYSVFQDGSSHTPFAPFIVPLSVIICPDRVGVFVDYEACTVSFFNITNHGFLIYKFSQCSFSKPVFPYLNPRKCTVPMTLCSPSS [rhesus TRIM5α, 332-344 = QAPGTRFTFQTLT]” was run?
The enrichment was 1.52 ± 0.12.

For “MASGILLNVKEEVTCPICLELLTEPLSLHCGHSFCQACITANHKKSMLYKEGERSCPVCRISYQPENIQPNRHVANIVEKLREVKLSPEEGQKVDHCARHGEKLLLFCQEDSKVICWLCERSQEHRGHHTFLMEEVAQEYHVKLQTALEMLRQKQQEAEKLEADIREEKASWKIQIDYDKTNVSADFEQLREILDWEESNELQNLEKEEEDILKSLTKSETEMVQQTQYMRELISELEHRLQGSMMDLLQGVDGIIKRIENMTLKKPKTFHKNQRRVFRAPDLKGMLDMFRELTDARRYWVDVTLAPNNISHAVIAEDKRQVSSRNPQIMYQARGTLFTFQTFTNFNYCTGVLGSQSITSGKHYWEVDVSKKSAWILGVCAGFQSDAMYNIEQNENYQPKYGYWVIGLQEGVKYSVFQDGSSHTPFAPFIVPLSVIICPDRVGVFVDYEACTVSFFNITNHGFLIYKFSQCSFSKPVFPYLNPRKCTVPMTLCSPSS [rhesus TRIM5α, 332-344 = QARGTLFTFQTFT]”, which enrichment is on record?
Its enrichment is 1.75 ± 0.96.

With “MASGILLNVKEEVTCPICLELLTEPLSLHCGHSFCQACITANHKKSMLYKEGERSCPVCRISYQPENIQPNRHVANIVEKLREVKLSPEEGQKVDHCARHGEKLLLFCQEDSKVICWLCERSQEHRGHHTFLMEEVAQEYHVKLQTALEMLRQKQQEAEKLEADIREEKASWKIQIDYDKTNVSADFEQLREILDWEESNELQNLEKEEEDILKSLTKSETEMVQQTQYMRELISELEHRLQGSMMDLLQGVDGIIKRIENMTLKKPKTFHKNQRRVFRAPDLKGMLDMFRELTDARRYWVDVTLAPNNISHAVIAEDKRQVSSRNPQIMYQARGTRYTFQSLVNFNYCTGVLGSQSITSGKHYWEVDVSKKSAWILGVCAGFQSDAMYNIEQNENYQPKYGYWVIGLQEGVKYSVFQDGSSHTPFAPFIVPLSVIICPDRVGVFVDYEACTVSFFNITNHGFLIYKFSQCSFSKPVFPYLNPRKCTVPMTLCSPSS [rhesus TRIM5α, 332-344 = QARGTRYTFQSLV]” as the sequence, how does the enrichment read?
The enrichment was 0.751 ± 0.15.

How did the enrichment turn out when “MASGILLNVKEEVTCPICLELLTEPLSLHCGHSFCQACITANHKKSMLYKEGERSCPVCRISYQPENIQPNRHVANIVEKLREVKLSPEEGQKVDHCARHGEKLLLFCQEDSKVICWLCERSQEHRGHHTFLMEEVAQEYHVKLQTALEMLRQKQQEAEKLEADIREEKASWKIQIDYDKTNVSADFEQLREILDWEESNELQNLEKEEEDILKSLTKSETEMVQQTQYMRELISELEHRLQGSMMDLLQGVDGIIKRIENMTLKKPKTFHKNQRRVFRAPDLKGMLDMFRELTDARRYWVDVTLAPNNISHAVIAEDKRQVSSRNPQIMYGAPGTLYTFPTFVNFNYCTGVLGSQSITSGKHYWEVDVSKKSAWILGVCAGFQSDAMYNIEQNENYQPKYGYWVIGLQEGVKYSVFQDGSSHTPFAPFIVPLSVIICPDRVGVFVDYEACTVSFFNITNHGFLIYKFSQCSFSKPVFPYLNPRKCTVPMTLCSPSS [rhesus TRIM5α, 332-344 = GAPGTLYTFPTFV]” was run?
The enrichment was 0.712 ± 0.26.

“MASGILLNVKEEVTCPICLELLTEPLSLHCGHSFCQACITANHKKSMLYKEGERSCPVCRISYQPENIQPNRHVANIVEKLREVKLSPEEGQKVDHCARHGEKLLLFCQEDSKVICWLCERSQEHRGHHTFLMEEVAQEYHVKLQTALEMLRQKQQEAEKLEADIREEKASWKIQIDYDKTNVSADFEQLREILDWEESNELQNLEKEEEDILKSLTKSETEMVQQTQYMRELISELEHRLQGSMMDLLQGVDGIIKRIENMTLKKPKTFHKNQRRVFRAPDLKGMLDMFRELTDARRYWVDVTLAPNNISHAVIAEDKRQVSSRNPQIMYGAPGTRYPSFVNFNYCTGVLGSQSITSGKHYWEVDVSKKSAWILGVCAGFQSDAMYNIEQNENYQPKYGYWVIGLQEGVKYSVFQDGSSHTPFAPFIVPLSVIICPDRVGVFVDYEACTVSFFNITNHGFLIYKFSQCSFSKPVFPYLNPRKCTVPMTLCSPSS [rhesus TRIM5α, 332-344 = GAPGTRYPSFV]” was tested. Which enrichment did it give?
The enrichment was 0.298 ± 0.28.

“MASGILLNVKEEVTCPICLELLTEPLSLHCGHSFCQACITANHKKSMLYKEGERSCPVCRISYQPENIQPNRHVANIVEKLREVKLSPEEGQKVDHCARHGEKLLLFCQEDSKVICWLCERSQEHRGHHTFLMEEVAQEYHVKLQTALEMLRQKQQEAEKLEADIREEKASWKIQIDYDKTNVSADFEQLREILDWEESNELQNLEKEEEDILKSLTKSETEMVQQTQYMRELISELEHRLQGSMMDLLQGVDGIIKRIENMTLKKPKTFHKNQRRVFRAPDLKGMLDMFRELTDARRYWVDVTLAPNNISHAVIAEDKRQVSSRNPQIMYGAPGTRYTFQTFVNFNYCTGVLGSQSITSGKHYWEVDVSKKSAWILGVCAGFQSDAMYNIEQNENYQPKYGYWVIGLQEGVKYSVFQDGSSHTPFAPFIVPLSVIICPDRVGVFVDYEACTVSFFNITNHGFLIYKFSQCSFSKPVFPYLNPRKCTVPMTLCSPSS [rhesus TRIM5α, 332-344 = GAPGTRYTFQTFV]” was tested. Which enrichment did it give?
The enrichment was 1.69 ± 0.91.

Which enrichment does the source give for “MASGILLNVKEEVTCPICLELLTEPLSLHCGHSFCQACITANHKKSMLYKEGERSCPVCRISYQPENIQPNRHVANIVEKLREVKLSPEEGQKVDHCARHGEKLLLFCQEDSKVICWLCERSQEHRGHHTFLMEEVAQEYHVKLQTALEMLRQKQQEAEKLEADIREEKASWKIQIDYDKTNVSADFEQLREILDWEESNELQNLEKEEEDILKSLTKSETEMVQQTQYMRELISELEHRLQGSMMDLLQGVDGIIKRIENMTLKKPKTFHKNQRRVFRAPDLKGMLDMFRELTDARRYWVDVTLAPNNISHAVIAEDKRQVSSRNPQIMYQAPGTLYTFPSFVNFNYCTGVLGSQSITSGKHYWEVDVSKKSAWILGVCAGFQSDAMYNIEQNENYQPKYGYWVIGLQEGVKYSVFQDGSSHTPFAPFIVPLSVIICPDRVGVFVDYEACTVSFFNITNHGFLIYKFSQCSFSKPVFPYLNPRKCTVPMTLCSPSS [rhesus TRIM5α, 332-344 = QAPGTLYTFPSFV]” here?
The enrichment was 1.76 ± 1.3.

For “MASGILLNVKEEVTCPICLELLTEPLSLHCGHSFCQACITANHKKSMLYKEGERSCPVCRISYQPENIQPNRHVANIVEKLREVKLSPEEGQKVDHCARHGEKLLLFCQEDSKVICWLCERSQEHRGHHTFLMEEVAQEYHVKLQTALEMLRQKQQEAEKLEADIREEKASWKIQIDYDKTNVSADFEQLREILDWEESNELQNLEKEEEDILKSLTKSETEMVQQTQYMRELISELEHRLQGSMMDLLQGVDGIIKRIENMTLKKPKTFHKNQRRVFRAPDLKGMLDMFRELTDARRYWVDVTLAPNNISHAVIAEDKRQVSSRNPQIMYQARGTRFTFQTLTNFNYCTGVLGSQSITSGKHYWEVDVSKKSAWILGVCAGFQSDAMYNIEQNENYQPKYGYWVIGLQEGVKYSVFQDGSSHTPFAPFIVPLSVIICPDRVGVFVDYEACTVSFFNITNHGFLIYKFSQCSFSKPVFPYLNPRKCTVPMTLCSPSS [rhesus TRIM5α, 332-344 = QARGTRFTFQTLT]”, which enrichment is on record?
The enrichment was 0.918 ± 0.19.

For “MASGILLNVKEEVTCPICLELLTEPLSLHCGHSFCQACITANHKKSMLYKEGERSCPVCRISYQPENIQPNRHVANIVEKLREVKLSPEEGQKVDHCARHGEKLLLFCQEDSKVICWLCERSQEHRGHHTFLMEEVAQEYHVKLQTALEMLRQKQQEAEKLEADIREEKASWKIQIDYDKTNVSADFEQLREILDWEESNELQNLEKEEEDILKSLTKSETEMVQQTQYMRELISELEHRLQGSMMDLLQGVDGIIKRIENMTLKKPKTFHKNQRRVFRAPDLKGMLDMFRELTDARRYWVDVTLAPNNISHAVIAEDKRQVSSRNPQIMYQAPGTLFTFQTFTNFNYCTGVLGSQSITSGKHYWEVDVSKKSAWILGVCAGFQSDAMYNIEQNENYQPKYGYWVIGLQEGVKYSVFQDGSSHTPFAPFIVPLSVIICPDRVGVFVDYEACTVSFFNITNHGFLIYKFSQCSFSKPVFPYLNPRKCTVPMTLCSPSS [rhesus TRIM5α, 332-344 = QAPGTLFTFQTFT]”, which enrichment is on record?
Its enrichment is 1.27 ± 0.47.

“MASGILLNVKEEVTCPICLELLTEPLSLHCGHSFCQACITANHKKSMLYKEGERSCPVCRISYQPENIQPNRHVANIVEKLREVKLSPEEGQKVDHCARHGEKLLLFCQEDSKVICWLCERSQEHRGHHTFLMEEVAQEYHVKLQTALEMLRQKQQEAEKLEADIREEKASWKIQIDYDKTNVSADFEQLREILDWEESNELQNLEKEEEDILKSLTKSETEMVQQTQYMRELISELEHRLQGSMMDLLQGVDGIIKRIENMTLKKPKTFHKNQRRVFRAPDLKGMLDMFRELTDARRYWVDVTLAPNNISHAVIAEDKRQVSSRNPQIMYGARGTLFTFQTFVNFNYCTGVLGSQSITSGKHYWEVDVSKKSAWILGVCAGFQSDAMYNIEQNENYQPKYGYWVIGLQEGVKYSVFQDGSSHTPFAPFIVPLSVIICPDRVGVFVDYEACTVSFFNITNHGFLIYKFSQCSFSKPVFPYLNPRKCTVPMTLCSPSS [rhesus TRIM5α, 332-344 = GARGTLFTFQTFV]” was tested. Which enrichment did it give?
The enrichment was 1.82 ± 0.95.
